In PubChem BioAssay AID360 (National Center for Advancing Translational Sciences (NCATS), 2006):
About 550 (1.1%) of roughly 48,000 compounds were called active. Not shown: some 4% with an inconclusive outcome. Cut-off read from the data, not from the text of the source: active = potency below about 15 µM; inconclusive = mostly about 16 µM to 33 µM; inactive = weaker than that. Some of the results follow.

Biological target: Lysosomal acid glucosylceramidase (Homo sapiens) (UniProt P04062)
Experiment: Glucocerebrosidase;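 note: the screen sought inhibitors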
Settings: purified enzyme, resorufin glucoside fluorescence (screen aimed at inhibitors), 20 min
In short: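 Compounds titrated against 0.2 nM normal enzyme, 30 uM resorufin beta-D-glucopyranoside substrate, citrate/phosphate buffer with taurocholate and tween-20, pH 5.9. Reaction ran 20 min at room temperature; fluorescence (Ex 548/Em 600) gave AC50.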
Potency is the fitted concentration of half-maximal effect.

UniProt P04062, sequence (P04062 whole entry, looked up): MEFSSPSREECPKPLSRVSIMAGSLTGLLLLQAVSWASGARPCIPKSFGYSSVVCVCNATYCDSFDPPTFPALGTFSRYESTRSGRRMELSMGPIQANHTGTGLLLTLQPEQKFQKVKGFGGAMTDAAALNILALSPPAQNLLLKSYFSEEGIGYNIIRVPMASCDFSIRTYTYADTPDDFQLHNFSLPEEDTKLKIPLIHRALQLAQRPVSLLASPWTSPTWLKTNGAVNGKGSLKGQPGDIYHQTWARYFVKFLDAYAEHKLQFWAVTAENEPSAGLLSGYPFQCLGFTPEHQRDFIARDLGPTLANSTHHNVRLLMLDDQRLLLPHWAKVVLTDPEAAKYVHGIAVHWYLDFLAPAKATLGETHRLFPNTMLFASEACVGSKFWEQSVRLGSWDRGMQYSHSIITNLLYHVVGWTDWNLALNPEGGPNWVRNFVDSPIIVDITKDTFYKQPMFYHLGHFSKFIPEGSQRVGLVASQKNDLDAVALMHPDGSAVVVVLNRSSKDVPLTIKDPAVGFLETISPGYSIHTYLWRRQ

Potency, inactive:
COc1ccccc1NC(=O)C1=C(C)Nc2ncnn2C1c1ccccc1C (stereo unspecified) > 76.9 µM
Cc1cc(C(=O)NCCC2=CCCCC2)no1 > 76.9 µM
CC(C)(C)c1ccc(-c2nc(C#N)c(NCc3ccncc3)o2)cc1 > 76.9 µM
CS(=O)(=O)N(CC(=O)NC1CCCC1)c1cccc(F)c1 > 76.9 µM
O=C(CCSc1nc(-c2ccco2)cc(C(F)(F)F)n1)NCc1ccccn1 > 76.9 µM
Cc1ccc(S(=O)(=O)N2CCN(C(=O)CSc3nnc(-c4ccco4)o3)CC2)cc1 > 76.9 µM
CCN1C(=O)CC(C(=O)NC)SC1=Nc1cc(Cl)c(O)c(Cl)c1 (stereo unspecified) > 76.9 µM
CCOc1ccc2nc(NCCNC(=O)Nc3cccc(C)c3)c(C#N)cc2c1 > 76.9 µM
CCCc1cc(=O)oc2cc3oc(C)c(C)c3cc12 > 76.9 µM
COC(=O)c1cn(C)c2ccc(S(=O)(=O)N3CCCC3)cc2c1=O > 76.9 µM
COC(=O)c1cn(CC(=O)N2CCCCCC2)c2ccccc12 > 76.9 µM
Cc1cccc(Nc2ncc3c(n2)CC(c2ccco2)CC3=O)c1 (stereo unspecified) > 76.9 µM
CCOC(=O)N1CCC2(CC1)C(C(=O)C13CC4CC(CC(C4)C1)C3)C2(C#N)C#N (stereo unspecified) > 76.9 µM
CCCN1C2CCCC1CC(NC(=O)c1ccccc1F)C2 (stereo unspecified) > 76.9 µM
CCOC(=O)N1CCN(C(=O)c2ccc(NS(C)(=O)=O)cc2)CC1 > 76.9 µM
CCOC(=O)C(C)n1cnc2c(nnn2Cc2ccc(Cl)cc2)c1=O (stereo unspecified) > 76.9 µM
COc1cc2c(cc1OC)-c1cc(N3CCCCCC3)nc(=O)n1CC2 > 76.9 µM
CC(=O)Nc1nc2c(c3c1c(=O)oc1ccccc13)CC(C)CC2 (stereo unspecified) > 76.9 µM
C=CCNC(=O)c1ccccc1NS(=O)(=O)c1ccc(SC)cc1
CC(C)CCNC(=O)NC(=O)CSc1nnc2ccccn12 > 76.9 µM
CSc1ccccc1NC(=O)CN(c1cc(C)cc(C)c1)S(C)(=O)=O > 76.9 µM
Cc1csc(SCC(=O)Nc2cccc3nsnc23)n1 > 76.9 µM
C/C(=N\S(=O)(=O)c1ccc(C)cc1)N1CCN(S(=O)(=O)c2ccccc2)C1 > 76.9 µM
Cc1cc(C)n(-c2nc(C)nc(N)n2)n1 > 76.9 µM
CCCCC(CC)C(=O)Nc1ccccc1C#N (stereo unspecified) > 76.9 µM
c1ccc(Cn2nnnc2CN2CCN(c3ncccn3)CC2)cc1 > 76.9 µM
